# Data: patent US9803019B2, “Carrier immunoglobulins and uses thereof” (Amgen Inc., priority 2010, dated 2017)
# B1: 16435 (antibody)
# heavy: MEWTWRVLFLVAAATGAHSQVQLVQSGAEVKKPGASVKVSCKASGYTFTRYGISWVRQAPGQGLEWMGWISTYSGNTNYAQKLQGRVTMTTDTSTSTAYMELRSLRSDDTAVYYCARAQLYFDYWGQGTLVTVSSASTKGPSVFPLAPCSRSTSESTAALGCLVKDYFPEPVTVSWNSGALTSGVHTFPAVLQSSGLYSLSSVVTVPSSNFGTQTYTCNVDHKPSNTKVDKTVERKCCVECPPCPAPPVAGPSVFLFPPKPKDTLMISRTPEVTCVVVDVSHEDPEVQFNWYVDGVEVHNAKTKPREEQFNSTFRVVSVLTVVHQDWLNGKEYKCKVSNKGLPAPIEKTISKTKGQPREPQVYTLPPSREEMTKNQVSLTCLVKGFYPSDIAVEWESNGQPENNYKTTPPMLDSDGSFFLYSKLTVDKSRWQQGNVFSCSVMHEALHNHYTQKSLSLSPGK
# light: EIVMTQSPATLSVSPGERATLSCRASQSVSSNLAWFQQKPGQAPRLLIYDASTRATGVPARFSGSGSGTEFTLTISSLQSEDFAVYYCQQYDNWPLTFGGGTKVEIKRTVAAPSVFIFPPSDEQLKSGTASVVCLLNNFYPREAKVQWKVDNALQSGNSQESVTEQDSKDSTYSLSSTLTLSKADYEKHKVYACEVTHQGLSSPVTKSFNRGEC
# modifications: 16435 (LC: P66L, D90E)
# Assay: Cynomolgus PK, sequential SC doses (Example 10)
# Assay type: in vivo, cynomolgus monkeys
# Protocol: The pharmacokinetic profiles of the 16435 and 4341 antibodies were also determined in cynomolgus monkeys (n=2 per group) by injecting of two subsequent subcutaneous doses of 1 mg/kg at day 0 and 5 mg/kg at day 57. Serum samples were collected at pre-dose, 0.5, 2, 4, 8, 12, 24, 48, 96, 168, 336, 504, 672, 840, 1008, 1176, 1344 (prior to second dose) hours post 1st dose at 1 mg/kg and 0.5, 2, 4, 8, 12, 24, 48, 96, 168, 336, 360, 384, 432, 504, 672, 840, 1008, 1176, 1344 following post 2nd dose at 5 mg/kg. The samples were assayed for the 16435 and 4341 antibody levels by using an anti-IgG sandwich ELISA as described above. Time concentration data were analyzed using non-compartmental methods with WinNonLin®. […] If there had been a significant immune response causing abnormal antibody clearance, it would have been expected after the second dose, due to immune system priming by the first dose.
molecule,measurement,setting,value
B1,change in clearance mediated by an immune response after multiple dosing,1 mg/kg day 0 then 5 mg/kg day 57 SC (FIG. 44),no indication of a significant change in the clearance mediated by an immune response
same,half life,SC,about 12 days
same,AUC0-inf,SC 5 mg/kg,"31,230,285 ng · h/mL"
same,AUC0-t,SC 5 mg/kg,"29,924,604 ng · h/mL"
same,CL/F,SC 5 mg/kg,3.86 mL/day/kg
same,Cmax,SC 5 mg/kg,"58,682 ng/mL"
same,MRT,SC 5 mg/kg,18.8 days
same,Tmax,SC 5 mg/kg,4 days
same,T1/2,"SC 5 mg/kg (second dose, day 57, after 1 mg/kg at day 0)",11.9 days
